Screen size: about 420,000 compounds; about 50,000 (12%) were called active. The shares of active, inactive and inconclusive entries below differ from those in the screen. Calls follow the shape of the dose curve; as a rule, active = well fitted inhibition curve with a large enough effect; inconclusive = small, poorly fitted or top-dose-only effect; inactive = flat fitted curve, though single readings scatter. No potency is given beside an inconclusive call; the fits are too rough.
Assay: qHTS for Inhibitors of human tyrosyl-DNA phosphodiesterase 1 (TDP1): qHTS in cells in presence of CPT; also: nearly all actives have a fitted effect of over 55% in size
Details: chicken DT40 Tdp1-/-;hTDP1 cells + 20 nM CPT, ATP luminescence, 48 h; activity change, negative = growth inhibition: at 46.2 µM (top of the series)
In short: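 Cell growth measured by CellTiter-Glo luminescence after a minimum 48 h, 37 C compound exposure with 20 nM CPT in Tdp1-knockout DT40 cells stably expressing hTDP1, seeded 400/well; qHTS titration format.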
% is scaled to controls: 0 for no effect and ±100 for the full control effect; potency is read from the fitted curve at half-maximal effect; tags tell the direction and shape of the fitted curve.

Row | Compound | Potency | activity change, negative = growth inhibition
1 | CC1CCN(S(=O)(=O)c2ccc(NC(=O)C3CSC4(C)CCC(=O)N34)cc2)CC1 (stereo not drawn) | inconclusive [inhibitor, single point] | –
2 | CC(C)CCCN1C(Nc2ccccc2)=NC[C@@H]1CC(C)C | inconclusive [inhibitor, single point] | –
3 | COc1ccc(NC(=O)C2CCN(c3cc(C)nc(-c4ccccc4)n3)CC2)cc1 | inconclusive [inhibitor, single point] | –
4 | O=C(CCC1CCCC1)NCCS(=O)(=O)N1CCN(c2ccccc2F)CC1 | inconclusive [inhibitor, single point] | –
5 | O=C(NCC(c1cccnc1)N1CCN(c2ccccc2)CC1)OCc1ccccc1 (stereo not drawn) | inconclusive [inhibitor, single point] | –
6 | Cc1ccc(OCCSc2nc3ncnc(N)c3[nH]2)cc1 | active: 8.2 µM | –
7 | Cc1ccccc1N1C(=O)C(Oc2ccc(Cl)cc2)C1CNCCCOC(C)C (stereo not drawn) | inconclusive [inhibitor, single point] | –
8 | CC(=O)Nc1cc(-c2ccccc2N(C)C)cn2c(-c3ccc(S(C)(=O)=O)cc3)cnc12 | inconclusive [inhibitor, single point] | –
9 | O=C(COc1ccc(Br)cc1)N(Cc1nnc(-c2ccccc2Cl)o1)C1CC1 | active: 23.1 µM | –
10 | CC(=O)Nc1cc(-c2cccc(NS(C)(=O)=O)c2)cn2c(-c3cccc(C(C)=O)c3)cnc12 | active: 16.4 µM | –
11 | CSc1ccc(NC(=O)C2(C)CCN2C(=O)C2(c3ccccc3)CC2)cc1 (stereo not drawn) | active: 18.4 µM | –
12 | COc1cc(Cl)c(C)cc1Nc1nc2ccccc2nc1NS(=O)(=O)c1ccccc1 | – | inactive: -15.5%
13 | CCOc1ccc(N=C(NN)c2ccc3ccccc3n2)cc1 | inconclusive [inhibitor, single point] | –
14 | COc1ccccc1-c1cccc([C@@H]2C[C@H]3[C@H](CON3C)CN2Cc2cc(Cl)cc(Cl)c2)c1 | inconclusive [inhibitor, single point] | –
15 | Cc1ccccc1C(=O)N(C)[C@H]1C[C@H]2c3[nH]c4ccccc4c3CCN2C[C@H]1[C@H](C)O | inconclusive [inhibitor, single point] | –
16 | CC1=C(C(=O)N2CCCCCC2)CC(CC(=O)NCCc2ccccn2)C(=O)N1Cc1ccccc1 (stereo not drawn) | – | inactive: -19.8%
17 | O=C1CCC/C1=C/Nc1ccc(Cl)cc1 | inconclusive [inhibitor, single point] | –
18 | CC(O)(c1cccnc1)c1nc(-c2ccc(F)c(Cl)c2)cs1 (stereo not drawn) | inconclusive [inhibitor, single point] | –

Source: PubChem BioAssay AID686979 (National Center for Advancing Translational Sciences (NCATS), 2013)
